From PubChem BioAssay AID485344 (National Center for Advancing Translational Sciences (NCATS), 2010) come the findings set out here.

The whole screen tested about 340,000 compounds, of which about 6,900 (2%) were called active. Cut-off read from the data, not from the text of the source: active = inhibition above about 30%; inactive = below that, where a call was filed. Only a part is listed here, and it is no random draw. Entries without a call were filed so in the source.

The assay has as its target D(2) dopamine receptor (Homo sapiens) (UniProt P14416). Put plainly: HTS Assay for Allosteric Antagonists of the Human D2 Dopamine Receptor: Primary Screen for Antagonists. Note: 0% is about no effect. The following applies: HEK293 TREx D2 cells, calcium flux, dopamine EC80; at 10 µM; stronger effect = higher value. The method in brief: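 In this primary screen, negative modulation is detected by tracking calcium flux after an EC80 dopamine challenge in inducible HEK293 T-REx D2 cells preexposed to test compound for 180 s.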
UniProt P14416, sequence (P14416 whole entry, looked up): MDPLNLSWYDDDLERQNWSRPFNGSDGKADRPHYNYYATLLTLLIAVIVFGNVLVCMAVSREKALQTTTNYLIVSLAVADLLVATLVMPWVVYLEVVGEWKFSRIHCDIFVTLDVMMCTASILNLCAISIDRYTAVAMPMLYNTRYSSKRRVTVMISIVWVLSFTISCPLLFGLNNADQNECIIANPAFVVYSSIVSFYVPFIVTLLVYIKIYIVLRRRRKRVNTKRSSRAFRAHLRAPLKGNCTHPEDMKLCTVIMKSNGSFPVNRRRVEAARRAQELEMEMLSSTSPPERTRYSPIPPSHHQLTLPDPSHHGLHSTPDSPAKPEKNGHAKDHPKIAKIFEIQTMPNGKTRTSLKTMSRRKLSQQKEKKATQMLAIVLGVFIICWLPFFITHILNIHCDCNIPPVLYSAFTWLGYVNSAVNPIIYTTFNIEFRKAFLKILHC
Take `CCN(CCCNC(=O)c1nn(-c2ccc(OC)c(Cl)c2)c(=O)c2c1c1ccccc1n2C)c1ccccc1`: the inhibition (usually the change of the read-out against control, counted positive when it falls) was 1.99%.
The result for `CC1CCN(C(=O)Cn2c(SCC(=O)Nc3ccc(F)cc3)nc3ccccc32)CC1` reads 6.1%.
On to `Cc1ccc(CN2CCN(C3CCN(S(=O)(=O)N(C)C)CC3)C(=O)C2=O)cc1`, for which the inhibition was 2.11%.
In the case of `COc1ccc(OC)c(CNC(=O)CSc2c3c(nc4cc(Cl)ccc24)CCCC3)c1`, the inhibition is 4.54%.
The result for `Cc1cccc(NC(=O)Cn2c(=O)c3cccn3c3ccccc32)c1C` reads -14.1%; that for `COc1ccc(-c2csc(-c3c(N)c(C(=O)c4ccccc4)n4ccccc34)n2)cc1OC`, 4.54%.
Take `COc1ccccc1N1CCN(C(=O)CSc2nc3ccccc3nc2Cc2ccc(C)cc2)CC1`: the inhibition was found to be 3.21%.
With `COc1cc(NS(=O)(=O)c2cc(Br)cc3c2N(C(=O)C2CC2)CC3)cc(OC)c1`, the inhibition was determined as 15.3%.
Take `O=C(NCCC1=CCCCC1)c1ccc2c(c1)N(Cc1ccccc1)C(=O)c1ccccc1S2=O` (stereo not given): the inhibition was -13.3%.
With `CCn1c(SCC(=O)Nc2c(C)cccc2C)nnc1-c1nonc1NC(C)=O` the figure was 9.24%.
Take `Cc1ccc(C(=O)N2CCCCC2CCN2CCCCC2)cc1` (stereo not given): the inhibition is -25.4%.
On to `COc1ccccc1CN1CC(C(=O)NCc2cccc(Cl)c2)CCC1=O` (stereo not given), for which the inhibition was active: 36.1%.
For the compound `CCc1nn(CC(=O)NCCOC)c(=O)c2cc3cc(F)ccc3n12`, the inhibition is -5.94%.
`O=C(Nc1cccc(C(F)(F)F)c1)Nc1ccc2snnc2c1`: the inhibition was -3.33%.
Consider `CCOC(=O)c1c(NC(=O)c2ccc(S(=O)(=O)N(CC)CC)cc2)sc2c1CCCCC2`, for which the inhibition worked out at 2.87%.
With `CCCN1CC23C=CC(O2)C(C(=O)O)C3C1=O` (stereo not given) the figure was active: 47.6%.
As to `Cc1cc(S(=O)(=O)Nc2ccc(O)c(Sc3nc4ccccc4s3)c2)ccc1Cl`, the inhibition turned out to be 5.83%.
Consider `CCc1ccc(CN(Cc2cn[nH]c2-c2ccc(OC)cc2)C(=O)Nc2ccc(Br)cc2)cc1`, for which the inhibition is -3.03%.
With `CN(C)c1ccc(C(CNS(=O)(=O)c2ccc(F)cc2F)N2CCOCC2)cc1` (stereo not given) the figure was -3.06%.
For the compound `Cc1ccc(CCNC(=O)CN(c2ccc(C(C)C)cc2)S(=O)(=O)c2c(C)nn(C)c2C)cc1`, the inhibition is -2.25%.
As to `CCN(CC)C(=O)CSc1nc2cc3c(cc2c(=O)n1CCCC(=O)NCc1ccc(OC)cc1)OCO3`, the inhibition came to 24.3%.
Turning to `CCCNC(=O)N1CCCN(S(=O)(=O)c2ccc3c(ccn3CC)c2)CC1`, the inhibition is -1.26%.
With `Cc1c(Cl)cccc1-c1ccc(/C=C(\C#N)c2nc3ccccc3[nH]2)o1` the figure was 8.28%; with `Oc1ccc(CCNc2c3ccccc3nc3ccccc23)cc1O`, active: 91.2%; with `CCCCOc1cccc(C(=O)N2CCN(CCc3ccncc3)CC2)c1`, 3.19%.
`CCN(CC)c1ccc(NS(=O)(=O)c2cc(-c3cc(C)no3)ccc2C)c(C)c1`: the inhibition is 0.0331%.
As for `COc1cc(C(=O)N2CCN(C(=O)COc3cccc(C)c3)CC2)cc(OC)c1OC`, the inhibition amounted to 16.1%.
On to `Cc1cccc(C(=O)N(Cc2ccccc2F)C2CCS(=O)(=O)C2)c1` (stereo not given), for which the inhibition came to 10.6%.
Turning to `COC(=O)c1c(NC(=O)COc2cccc(C(F)(F)F)c2)sc2c1CCCC2`, the inhibition is -10.8%.
With `COc1ccc(Cc2nc3c4cnn(-c5cccc(F)c5)c4ncn3n2)cc1`, the inhibition was 5.11%.
With `CCOc1ccccc1C(=O)Nc1ccc(S(=O)(=O)N(Cc2ccccc2)c2ccccc2)cc1`, the inhibition is -6.35%.
As to `CCOC(=O)c1ccccc1NC(=O)Cn1ccn2nc(-c3ccc(OCC)cc3)cc2c1=O`, the inhibition was 5.33%.
Consider `Cc1ccccc1-c1noc(-c2nnn(-c3ccccc3C)c2N)n1`, for which the inhibition turned out to be 8.64%.
On to `Cc1ccc(-n2cc(C(=O)OCc3ccc(F)c(F)c3)c3ccccc3c2=O)cc1`, for which the inhibition is 4.34%.
On to `COc1ccc(/C=C2/N=C(SCC(=O)Nc3cc(C)on3)N(c3ccccc3)C2=O)cc1`, for which the inhibition was active: 31.5%.
With `CCCN1Cc2cccc(C(=O)Nc3ccccc3C(=O)OC)c2C1=O`, the inhibition is 4.49%.
Consider `CCOc1ccc(NC(=O)CN2CCN(CC(=O)Nc3ccc(F)cc3F)CC2)cc1`, for which the inhibition is 0.644%.
For the compound `O=C(NCCN1CCN(c2ccccc2)CC1)c1ccc2c(c1)[nH]c(=S)n1c3ccccc3nc21`, the inhibition is active: 33.6%.
As for `Cc1cccc(NC(=S)NC(NC(=O)c2ccco2)C(Cl)(Cl)Cl)c1` (stereo not given), the inhibition is active: 30.3%.
As to `Cc1ccc(CNC(=O)C2CCCN(c3ncnc4onc(-c5ccc(F)cc5)c34)C2)cc1` (stereo not given), the inhibition was -5.64%.
`COc1ccc(OC)c(NC(=O)Cn2c(=O)cc(C)c3c(C)nn(-c4cccc(Cl)c4C)c32)c1`: the inhibition is 9.49%.
With `CN1CC(=O)Nc2cc(C(=O)O)ccc21`, the inhibition is -11.2%.
In the case of `O=C(OCc1nc2ccccc2s1)c1ccc(Br)s1`, the inhibition was active: 31.9%.
Turning to `O=C(CN1C(=O)CCSc2ccccc21)Nc1ccc(C(F)(F)F)cc1`, the inhibition was found to be 9.42%.
For the compound `CCOc1ccccc1NC(=O)Cn1c(=O)n(Cc2cccs2)c(=O)c2cccnc21`, the inhibition was -4.58%.
For `CCC(C(=O)NCCc1cc(OC)ccc1OC)n1nc(C)c2c(C)n(-c3ccccc3)nc2c1=O` (stereo not given), the inhibition was -10.1%.
The result for `Fc1ccc(-c2nn(-c3ccc(Cl)cc3)c3c2cnc2ccc(F)cc23)cc1` reads -0.997%; that for `COc1ccc(-n2c(=O)c3ccccc3n(Cc3ccccc3Cl)c2=O)cc1`, -17.2%.
For the compound `CC(Sc1nc(=O)cc(N)n1CCc1ccccc1)C(=O)Nc1cccc(Cl)c1` (stereo not given), the inhibition amounted to 17.5%.
Turning to `Cc1ccc(C)c(CN2C(=O)c3ccccc3S(=O)c3ccc(C(=O)N4CCOCC4)cc32)c1` (stereo not given), the inhibition was -23%.
As to `COc1ccc(C(=O)Nc2nc3n(n2)C(c2ccc(Cl)cc2)C=C(c2ccccc2)N3)cc1OC` (stereo not given), the inhibition is -5.24%.
With `COc1ccccc1N1CCN(S(=O)(=O)c2c(C)sc3ncn(CC(=O)Nc4ccc(C)cc4Br)c(=O)c23)CC1` the figure was -3.25%; with `Cc1ccc(Nc2sc(C(=O)c3ccc(F)cc3)c(N)c2S(=O)(=O)c2ccc(C)cc2)cc1`, -13.5%; with `Cc1ccc(S(=O)(=O)c2nnn3c2nc(N2CCOCC2)c2sccc23)cc1C`, 2.1%.
As to `CCCS(=O)(=O)Nc1cc(-c2cn3ccc(C)cc3n2)ccc1C`, the inhibition came to 12.1%.
Regarding `O=C(Nc1ccc2nc(SCC(=O)N3CCCc4ccccc43)sc2c1)c1ccc(Cl)cc1`, the inhibition was -1.6%.
For `Cc1ccc(-n2ncc(C(=O)NC3CCN(Cc4ccccc4)CC3)c2C2CCN(C(=O)OC(C)(C)C)CC2)cc1C`, the inhibition is -4.7%.
On to `Cc1ccc(CSC2=Nc3ccccc3C3=NC(CC(=O)NCc4ccc5c(c4)OCO5)C(=O)N23)cc1` (stereo not given), for which the inhibition worked out at 14.4%.
With `Cc1cccc(C2N=C(N)Nc3nc4ccccc4n32)c1` (stereo not given) the figure was 10.3%; with `COc1cc(OC)c(NC(=O)c2ccc3c(c2)N(Cc2ccc(C)cc2)CCS3)cc1Cl`, 1.72%.
